Values belong to the binder of their own block, whether it stands above or below them.
What was measured:
[1] = target: T1, human CD3 (human, UniProt P07766 23-126; P04234 22-105); assay: BLI (Octet); conditions not stated
T1 construct: also called His-tagged human CD3; human CD3 (Acro CDD-H52W1)

[2] = target: T2, human PD-L1 (human, UniProt Q9NZQ7 part only); assay: BLI (Octet); conditions not stated
T2 construct: Soluble antigen in Octet; bought; also called human PD-L1 (Acro PD1-H5229)

[3] = target: T3, CD19 (UniProt P15391 20-291, limits assumed); assay: BLI (Octet); conditions not stated
T3 sequence (looked up): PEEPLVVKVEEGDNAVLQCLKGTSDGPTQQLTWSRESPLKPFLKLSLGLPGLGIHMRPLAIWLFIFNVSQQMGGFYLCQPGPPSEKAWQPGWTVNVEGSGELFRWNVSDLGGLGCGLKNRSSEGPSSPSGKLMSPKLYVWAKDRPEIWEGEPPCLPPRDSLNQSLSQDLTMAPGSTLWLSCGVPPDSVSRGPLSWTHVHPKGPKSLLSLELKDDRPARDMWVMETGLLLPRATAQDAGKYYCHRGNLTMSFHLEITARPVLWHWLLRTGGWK

[4] = target: NKG2D ligand; assay: BLI (Octet); conditions and ligand not stated
[5] = target: T1, human CD3; assay: BLI (Octet), binder on AHC sensor, 100 nM human CD3, 1:1 fit
T1 sequence (P07766 23-126, chain 1 of 2): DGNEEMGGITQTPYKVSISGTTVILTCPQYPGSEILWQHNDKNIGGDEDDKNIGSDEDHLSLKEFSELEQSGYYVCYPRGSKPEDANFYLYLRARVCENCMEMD
T1 sequence (P04234 22-105, chain 2 of 2, further chain): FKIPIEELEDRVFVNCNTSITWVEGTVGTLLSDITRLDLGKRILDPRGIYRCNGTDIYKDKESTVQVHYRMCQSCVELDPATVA

[6] = target: T2, human PD-L1; assay: BLI (Octet), binder on AHC sensor, 20 nM human PD-L1, 1:1 fit
T2 sequence (Q9NZQ7 19-238 limits assumed): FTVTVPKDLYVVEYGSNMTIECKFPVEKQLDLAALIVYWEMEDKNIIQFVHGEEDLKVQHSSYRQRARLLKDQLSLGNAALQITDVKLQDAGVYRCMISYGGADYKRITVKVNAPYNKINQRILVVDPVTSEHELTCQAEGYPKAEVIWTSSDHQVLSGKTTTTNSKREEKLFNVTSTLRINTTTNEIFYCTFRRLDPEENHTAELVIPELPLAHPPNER

[7] = target: T4, human EGFR (human, UniProt P00533 part only, limits assumed); assay: BLI (Octet), binder on AHC sensor, 200 nM human EGFR, 1:1 fit
T4 construct: Soluble antigen in Octet; construct not described

[8] = target: T5, human HER3 (human, UniProt P21860 part only); assay: BLI (Octet), binder on AHC sensor, 200 nM human HER3, 1:1 fit
T5 construct: Soluble antigen in Octet; bought; also called human HER3 (Acro ER3-H5223)

[9] = target: T6, human 4-1BB (human, UniProt Q07011 24-186, limits assumed); assay: BLI (Octet), binder on AHC sensor, 400 nM human 4-1BB, 1:1 fit
T6 construct: Soluble antigen in Octet; construct not described

human 4-1BB, sequence (Q07011 24-186 limits assumed): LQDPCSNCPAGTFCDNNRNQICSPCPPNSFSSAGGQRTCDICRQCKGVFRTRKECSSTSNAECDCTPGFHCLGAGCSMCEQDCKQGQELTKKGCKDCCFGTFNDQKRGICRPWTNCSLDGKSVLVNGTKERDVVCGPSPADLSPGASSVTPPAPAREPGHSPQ

Kd [1]: 30.4 nM | Kd [2]: 0.2 nM | Kd [3]: 1.31 nM | Kd [4]: 10.4 nM
B1: SI-49P_X (other)
chain 1: EIVMTQSPSTLSASVGDRVIITCQASESISSWLAWYQQKPGKAPKLLIYEASKLASGVPSRFSGSGSGAEFTLTISSLQPDDFATYYCQGYFYFISRTYVNSFGCGTKLTVLGSTGSGSKPGSGEGSTKGEVQLVESGGGLVQPGGSLRLSCTASGFTISTNAMSWVRQAPGKCLEWVGVITGRDITYYASWAKGRFTISRDTSKNTVYLQMNSLRAEDTAVYYCARDGGSSAITSNNIWGQGTLVTVSTGGGGSGGGGSFLNSLFNQEVQIPLTESYCGPCPKNWICYKNNCYQFFDESKNWYESQASCMSQNASLLKVYSKEDQDLLKLVKSYHWMGLVHIPTNGSWQWEDGSILSPNLLTIIEMQKGDCALYASSFKGYIENCSTPNTYICMQRTVASTKGPSVFPLAPSSKSTSGGTAALGCLVKDYFPEPVTVSWNSGALTSGVHTFPAVLQSSGLYSLSSVVTVPSSSLGTQTYICNVNHKPSNTKVDKRVEPKSCDKTHTCPPCPAPEAAGGPSVFLFPPKPKDTLMISRTPEVTCVVVDVSHEDPEVKFNWYVDGVEVHNAKTKPREEQYASTYRVVSVLTVLHQDWLNGKEYKCAVSNKALPAPIEKTISKAKGQPREPQVCTLPPSRDELTKNQVSLSCAVKGFYPSDIAVEWESNGQPENNYKTTPPVLDSDGSFFLVSKLTVDKSRWQQGNVFSCSVMHEALHNHYTQKSLSLSPG
chain 2: ENVLTQSPASLSASPGERVTITCSASSSVSYMHWYQQKPGQAPKLWIYDTSKLASGVPSRFSGSGSGNDHTLTISSMEPEDFATYYCFQGSVYPFTFGQGTKLEIKGSTGSGSKPGSGEGSTKGQVTLKESGPGLVQPGQTLRLTCAFSGFSLSTSGMGVGWIRQPPGKGLEWLAHIWWDDDKRYNPALKSRLTISKDTSKNQVYLQMNSLDAEDTAVYYCARMELWSYYFDYWGQGTLVTVSTGGGGSGGGGSFLNSLFNQEVQIPLTESYCGPCPKNWICYKNNCYQFFDESKNWYESQASCMSQNASLLKVYSKEDQDLLKLVKSYHWMGLVHIPTNGSWQWEDGSILSPNLLTIIEMQKGDCALYASSFKGYIENCSTPNTYICMQRTVRTVAAPSVFIFPPSDEQLKSGTASVVCLLNNFYPREAKVQWKVDNALQSGNSQESVTEQDSKDSTYSLSSTLTLSKADYEKHKVYACEVTHQGLSSPVTKSFNRGECGG[human IgG1 Fc with L234A L235A N297A K322A S354C T366W (EU numbers) cut from this listing]GGGGSGGGGSEVQLLESGGGLVQPGGSLRLSCAASGFSFSSGYDMCWVRQAPGKCLEWIACIAAGSAGITYDANWAKGRFTISRDNSKNTLYLQMNSLRAEDTAVYYCARSAFSFDYAMDLWGQGTLVTVSSGGGGSGGGGSGGGGSGGGGSDIQMTQSPSTLSASVGDRVTITCQASQSISSHLNWYQQKPGKAPKLLIYKASTLASGVPSRFSGSGSGTEFTLTISSLQPDDFATYYCQQGYSWGNVDNVFGCGTKVEIK
notes: tetra-miniGNC; D1 αCD3, D2 αCD19, D3 NKG2D receptor dimer, D5 αPD-L1

Kd [5]: 28.4 nM | Kd [6]: 0.4 nM | Kd [7]: < 0.001 nM | Kd [8]: 120 nM
B2: SI-68E2 (other)
chain 1: DIQMTQSPSSLSASVGDRVTITCQASQDISNYLNWYQQKPGKAPKLLIYDASNLETGVPSRFSGSGSGTDFTFTISSLQPEDIATYFCQHFDHLPLAFGCGTKVEIKGGGGSGGGGSGGGGSGGGGSQVQLQESGPGLVKPSETLSLTCTVSGGSVSSGDYYWTWIRQSPGKCLEWIGHIYYSGNTNYNPSLKSRLTISIDTSKTQFSLKLSSVTAADTAIYYCVRDRVTGAFDIWGQGTMVTVSTGGGGSGGGGSEVQLVESGGGLVQPGGSLRLSCAASGFTISTNAMSWVRQAPGKGLEWIGVITGRDITYYASWAKGRFTISRDNSKNTLYLQMNSLRAEDTAVYYCARDGGSSAITSNNIWGQGTLVTVSSASTKGPSVFPLAPSSKSTSGGTAALGCLVKDYFPEPVTVSWNSGALTSGVHTFPAVLQSSGLYSLSSVVTVPSSSLGTQTYICNVNHKPSNTKVDKRVEPKSCDKTHTCPPCPAPEAAGGPSVFLFPPKPKDTLMISRTPEVTCVVVDVSHEDPEVKFNWYVDGVEVHNAKTKPREEQYASTYRVVSVLTVLHQDWLNGKEYKCAVSNKALPAPIEKTISKAKGQPREPQVCTLPPSRDELTKNQVSLSCAVKGFYPSDIAVEWESNGQPENNYKTTPPVLDSDGSFFLVSKLTVDKSRWQQGNVFSCSVMHEALHNHYTQKSLSLSPGK
chain 2: QSALTQPASVSGSPGQSITISCTGTSSDVGGYNFVSWYQQHPGKAPKLMIYDVSDRPSGVSDRFSGSKSGNTASLIISGLQADDEADYYCSSYGSSSTHVIFGCGTKVTVLGGGGSGGGGSGGGGSGGGGSQVQLQESGGGLVKPGGSLRLSCAASGFTFSSYWMSWVRQAPGKCLEWVANINRDGSASYYVDSVKGRFTISRDDAKNSLYLQMNSLRAEDTAVYYCARDRGVGYFDLWGRGTLVTVSTGGGGSGGGGSDVVMTQSPSTLSASVGDRVTINCQASESISSWLAWYQQKPGKAPKLLIYEASKLASGVPSRFSGSGSGTEFTLTISSLQPDDFATYYCQGYFYFISRTYVNSFGGGTKVEIKRTVAAPSVFIFPPSDEQLKSGTASVVCLLNNFYPREAKVQWKVDNALQSGNSQESVTEQDSKDSTYSLSSTLTLSKADYEKHKVYACEVTHQGLSSPVTKSFNRGECGG[human IgG1 Fc with L234A L235A N297A K322A S354C T366W (EU numbers) cut from this listing]GGGGSGGGGSEVQLLESGGGLVQPGGSLRLSCAASGFSFSSGYDMCWVRQAPGKCLEWIACIAAGSAGITYDANWAKGRFTISRDNSKNTLYLQMNSLRAEDTAVYYCARSAFSFDYAMDLWGQGTLVTVSSGGGGSGGGGSGGGGSGGGGSDIQMTQSPSTLSASVGDRVTITCQASQSISSHLNWYQQKPGKAPKLLIYKASTLASGVPSRFSGSGSGTEFTLTISSLQPDDFATYYCQQGYSWGNVDNVFGCGTKVEIK
notes: tetra-miniGNC, all scFv stapled; D1 αEGFR*, D2 αHER3, D3 αCD3 (Fab), D5 αPD-L1

Kd [5]: 24.3 nM | Kd [6]: 0.6 nM | Kd [7]: < 0.001 nM | Kd [8]: 93.4 nM | Kd [9]: 9.8 nM
B3: SI-68P1 (other)
chain 1: DIQMTQSPSSLSASVGDRVTITCQASQDISNYLNWYQQKPGKAPKLLIYDASNLETGVPSRFSGSGSGTDFTFTISSLQPEDIATYFCQHFDHLPLAFGCGTKVEIKGGGGSGGGGSGGGGSGGGGSQVQLQESGPGLVKPSETLSLTCTVSGGSVSSGDYYWTWIRQSPGKCLEWIGHIYYSGNTNYNPSLKSRLTISIDTSKTQFSLKLSSVTAADTAIYYCVRDRVTGAFDIWGQGTMVTVSTGGGGSGGGGSEVQLVESGGGLVQPGGSLRLSCAASGFTISTNAMSWVRQAPGKGLEWIGVITGRDITYYASWAKGRFTISRDNSKNTLYLQMNSLRAEDTAVYYCARDGGSSAITSNNIWGQGTLVTVSSASTKGPSVFPLAPSSKSTSGGTAALGCLVKDYFPEPVTVSWNSGALTSGVHTFPAVLQSSGLYSLSSVVTVPSSSLGTQTYICNVNHKPSNTKVDKRVEPKSCDKTHTCPPCPAPEAAGGPSVFLFPPKPKDTLMISRTPEVTCVVVDVSHEDPEVKFNWYVDGVEVHNAKTKPREEQYASTYRVVSVLTVLHQDWLNGKEYKCAVSNKALPAPIEKTISKAKGQPREPQVCTLPPSRDELTKNQVSLSCAVKGFYPSDIAVEWESNGQPENNYKTTPPVLDSDGSFFLVSKLTVDKSRWQQGNVFSCSVMHEALHNHYTQKSLSLSPGGGGGSGGGGSRSLVESGGGLVQPGGSLRLSCTASGFTISSYHMQWVRQAPGKCLEYIGTISSGGNVYYASSARGRFTISRPSSKNTVDLQMNSLRAEDTAVYYCARDSGYSDPMWGQGTLVTVSSGGGGSGGGGSGGGGSGGGGSDVVMTQSPSSVSASVGDRVTITCQASQNIRTYLSWYQQKPGKAPKLLIYAAANLASGVPSRFSGSGSGTDFTLTISDLEPGDAATYYCQSTYLGTDYVGGAFGCGTKVEIK
chain 2: B2 chain 2
notes: penta-miniGNC, all scFv stapled; D1 αEGFR*, D2 αHER3, D3 αCD3 (Fab), D4 α4-1BB, D5 αPD-L1; also called penta-miniGNC (SI-68P1)

Source: US20230114801A1 (SYSTIMMUNE, published 2023)
